Measured values reported in paper PMC4336329 (PLoS ONE, 2015).
The whole screen tested about 310,000 compounds, of which about 14,000 (4.5%) showed an effect of 50% or more. The effect is printed as a negative number. Some of the results follow.

Target: human ether-à-go-go-related gene (hERG) potassium channel (human, UniProt Q12809)
Assay: primary screen, population patch clamp on CHO cells stably expressing hERG
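Also: peak tail current of the secondary pulse compared with the same well before compound.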

human ether-à-go-go-related gene (hERG) potassium channel, sequence (Q12809 whole entry, looked up): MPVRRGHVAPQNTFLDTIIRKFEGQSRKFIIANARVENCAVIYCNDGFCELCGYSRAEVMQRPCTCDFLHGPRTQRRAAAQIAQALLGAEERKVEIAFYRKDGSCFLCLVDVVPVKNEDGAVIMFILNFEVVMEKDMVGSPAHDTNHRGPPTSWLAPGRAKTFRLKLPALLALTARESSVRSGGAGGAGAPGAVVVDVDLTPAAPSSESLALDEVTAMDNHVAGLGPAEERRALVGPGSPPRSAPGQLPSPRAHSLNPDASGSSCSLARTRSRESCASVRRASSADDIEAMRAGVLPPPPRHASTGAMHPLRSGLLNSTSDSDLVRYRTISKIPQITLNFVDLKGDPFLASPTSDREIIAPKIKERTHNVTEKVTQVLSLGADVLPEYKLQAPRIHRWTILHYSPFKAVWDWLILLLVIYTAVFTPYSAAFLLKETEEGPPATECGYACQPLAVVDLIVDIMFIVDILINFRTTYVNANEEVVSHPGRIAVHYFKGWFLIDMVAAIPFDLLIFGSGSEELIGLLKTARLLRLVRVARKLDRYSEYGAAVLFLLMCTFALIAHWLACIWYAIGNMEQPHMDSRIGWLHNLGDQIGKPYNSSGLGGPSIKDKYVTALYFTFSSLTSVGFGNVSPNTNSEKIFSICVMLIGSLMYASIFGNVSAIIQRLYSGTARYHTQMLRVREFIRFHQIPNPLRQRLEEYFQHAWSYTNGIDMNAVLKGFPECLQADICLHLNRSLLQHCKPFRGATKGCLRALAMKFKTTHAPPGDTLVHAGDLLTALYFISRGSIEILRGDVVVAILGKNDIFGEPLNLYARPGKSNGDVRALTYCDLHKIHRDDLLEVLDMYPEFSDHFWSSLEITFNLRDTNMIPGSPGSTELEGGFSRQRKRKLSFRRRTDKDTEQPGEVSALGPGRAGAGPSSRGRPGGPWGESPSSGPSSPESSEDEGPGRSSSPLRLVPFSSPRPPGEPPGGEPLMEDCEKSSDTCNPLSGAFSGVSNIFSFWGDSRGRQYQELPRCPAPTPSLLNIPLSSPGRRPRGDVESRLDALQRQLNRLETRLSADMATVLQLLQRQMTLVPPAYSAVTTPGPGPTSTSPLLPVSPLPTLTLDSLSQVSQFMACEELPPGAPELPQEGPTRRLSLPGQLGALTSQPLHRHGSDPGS

Compared with `COC(=O)Nc1ccc(S(=O)(=O)NC2CCCCC2)cc1`, `NC(=O)CC(NC(=O)c1cccc(Br)c1)c1ccc(NC2CCCCCCCCCCC2)c([N+](=O)[O-])c1` (stereo not shown) is lower in “hERG current change (%, negative = inhibition) at 10uM” value: 14.6% for the first, 5.21% for the second.

Compared with `CCN(CC)S(=O)(=O)c1cccc(NC(=O)c2ccc(C#N)cc2)c1`, `Cc1ccc(C(=O)CCS(=O)(=O)c2ccc(Br)cc2)cc1` is higher in “hERG current change (%, negative = inhibition) at 10uM” value: -35% for the first, 27.6% for the second.

First: O=C(COC(=O)C1CCN(c2ccc(C(F)(F)F)cn2)CC1)Nc1ccc(Cl)cc1
Second: CCCCNC(=O)Nc1ccc(C(O)(C(=O)OC)C(F)(F)F)cc1 (stereo not shown)
The “hERG current change (%, negative = inhibition) at 10uM” value of the first is lower: -18% for the first, -9.4% for the second.

Compared with `CC(C(=O)O)n1cnc2sc3c(c2c1=O)CCCC3` (stereo not shown), `CCOC(=O)c1sc2ncn(C(CC)C(=O)OCC)c(=O)c2c1C` (stereo not shown) is lower in “hERG current change (%, negative = inhibition) at 10uM” value: 15.6% for the first, 1.12% for the second.

Compared with `COc1ccc(CCNC(=O)c2ccc3c(c2)OCCO3)cc1`, `COc1ccc(CCNC(=O)c2ccc(Cl)c(S(=O)(=O)N(C)c3ccccc3)c2)cc1` is lower in “hERG current change (%, negative = inhibition) at 10uM” value: 7.77% for the first, 3.8% for the second.

Compared with `CCc1ccc(N=C2NC(=O)/C(=C/c3cc(Br)c(OCC(=O)O)c(OC)c3)S2)cc1`, `CCCc1ccc(OCc2ccc(C(=O)OC)o2)c(OC)c1` is lower in “hERG current change (%, negative = inhibition) at 10uM” value: 1.05% for the first, -17.8% for the second.

Going from `O=C(COC(=O)CNC(=O)c1ccco1)NCc1ccc(F)cc1` to `COc1ccc(/C=C(/NC(=O)c2ccco2)C(=O)NCCc2ccccc2)cc1`, the “hERG current change (%, negative = inhibition) at 10uM” value falls from 11.7% to -52.6%.

First: CN1CCC(=O)N([C@H](CO)Cc2ccccc2)CC1
Second: Cl.O=C(CCN1C(=O)c2ccccc2S1(=O)=O)N1CCN(c2ccccc2)CC1
The “hERG current change (%, negative = inhibition) at 10uM” value of the first is higher: 12% for the first, 2.96% for the second.

First: Clc1ccc(-c2csc(N/N=C/c3ccco3)n2)cc1
Second: COc1ccc2c(c1OC)C(=O)OC2Nc1nc(-c2cccc([N+](=O)[O-])c2)cs1 (stereo not shown)
The “hERG current change (%, negative = inhibition) at 10uM” value of the first is lower: 10.8% for the first, 20.7% for the second.

Compared with `Nc1nonc1NC(=O)CSc1ncccc1C(=O)O`, `Cc1ccc(-c2ccc(SCC(=O)Nc3nonc3C)nn2)cc1` is lower in “hERG current change (%, negative = inhibition) at 10uM” value: 16.2% for the first, 4.05% for the second.

First: Cc1ccc(Cl)cc1NC1=NC(=S)N(C(C)C)C12CCCCC2
Second: COc1ccc(C(=O)OC(C)CN2CCOCC2)cc1OC.Cl (stereo not shown)
The “hERG current change (%, negative = inhibition) at 10uM” value of the first is higher: 6.79% for the first, 3.54% for the second.

Going from `COC(=O)c1ccc(CNC(=O)CN(CCC(C)C)S(=O)(=O)c2ccc3c(c2)OCCO3)cc1` to `CN(C)S(=O)(=O)c1ccc(Cl)c(C(=O)OCC(=O)NC(=O)c2cccn2C)c1`, the “hERG current change (%, negative = inhibition) at 10uM” value rises from -7.95% to -6.09%.

Going from `Cc1ccc(NC(=O)CSc2nc3ccccc3c3nc(CCn4cncc4C)nn23)c(C)c1` to `Cc1ccc(-n2ccnc(SCC(=O)NCCc3ccccc3)c2=O)cc1F`, the “hERG current change (%, negative = inhibition) at 10uM” value falls from 2.77% to -6.44%.

Going from `NC(=O)c1ccc(NCC2COc3ccccc3O2)c([N+](=O)[O-])c1` (stereo not shown) to `Cc1ccccc1NC(=O)COc1ccc2c(c1)OC(C)(C)CC2=O`, the “hERG current change (%, negative = inhibition) at 10uM” value rises from -1.78% to 22.6%.

First: COc1cc2c(C(=O)NCCCN3CCN(c4cccc(Cl)c4)CC3)cn(C)c(=O)c2cc1OC
Second: Cc1onc(-c2ccccc2Cl)c1C(=O)N1CCN(c2cccc(Cl)c2)CC1
The “hERG current change (%, negative = inhibition) at 10uM” value of the first is lower: -46% for the first, 13.6% for the second.

Compared with `CCN1CCN(CCNC(=O)c2cn(Cc3ccccc3F)nn2)CC1`, `Cc1cc(=O)n(CC(=O)NCCN2CCOCC2)c2c1c(C)nn2-c1ccccc1` is higher in “hERG current change (%, negative = inhibition) at 10uM” value: 10.1% for the first, 11.9% for the second.

Compared with `CCOc1ccc(Cc2n[nH]c(=S)n2Cc2ccccc2)cc1`, `COc1ccc(-n2c(-c3ccc(Br)cc3)n[nH]c2=S)cc1` is higher in “hERG current change (%, negative = inhibition) at 10uM” value: -10.3% for the first, 13.3% for the second.

Going from `COc1cc(OC)c(-n2cc(-c3ccc(OC)c(OC)c3)[nH]c2=S)cc1Cl` to `COc1cc(OC)c(OC)cc1/C=N/n1c(COc2ccccc2)n[nH]c1=S`, the “hERG current change (%, negative = inhibition) at 10uM” value rises from 12.8% to 17%.

Going from `CC1(C)N([O-])c2cc([N+](=O)[O-])ccc2[N+]1=O.NO` to `O=C(NCc1cn(-c2ccccc2)nc1-c1ccccc1)c1cc([N+](=O)[O-])cc([N+](=O)[O-])c1`, the “hERG current change (%, negative = inhibition) at 10uM” value falls from 17.9% to 11.1%.

Going from `CCOc1ccccc1CNC(=O)c1cc2oc3ccccc3c2n1CC` to `O=C(Cn1ccc2ccccc2c1=O)NCC(=O)Nc1ccc(F)cc1F`, the “hERG current change (%, negative = inhibition) at 10uM” value rises from -0.486% to 11.8%.

First: CCN(CC)c1ccc(N=Cc2c(O)[nH]c(=O)[nH]c2=O)cc1
Second: CC1CCCCN1CCCNc1c(C=O)c(=O)[nH]c2ccccc12 (stereo not shown)
The “hERG current change (%, negative = inhibition) at 10uM” value of the first is higher: -1.25% for the first, -3.96% for the second.

First: CCCCNC(=O)Cn1nc(Cc2ccncc2)c2ccccc2c1=O
Second: Cc1cccc(NC(=O)CCCCCN2C(=O)c3ccccc3C2=O)n1
The “hERG current change (%, negative = inhibition) at 10uM” value of the first is higher: 14.5% for the first, -7.28% for the second.

First: O=C(Nc1ccccn1)C1(c2cccs2)CCOCC1
Second: CC(=O)Nc1nnc(SCc2cc(=O)c(OC(=O)c3ccccc3)co2)s1
The “hERG current change (%, negative = inhibition) at 10uM” value of the first is lower: 8.48% for the first, 9.97% for the second.

First: Cn1cc(C(=O)N/N=C/c2cc(Br)cs2)c2ccccc21
Second: Cn1c2ccccc2c2ncn(CCC3=CCCCC3)c(=O)c21
The “hERG current change (%, negative = inhibition) at 10uM” value of the first is higher: 20.9% for the first, -16% for the second.

Compared with `CCC(C)NC(=O)Cn1cnc([N+](=O)[O-])c1` (stereo not shown), `CCOC(=O)c1nn(-c2ccccc2)c(=O)cc1SC(C)CC` (stereo not shown) is lower in “hERG current change (%, negative = inhibition) at 10uM” value: 11.8% for the first, 7.77% for the second.

Going from `COc1cc2cc(C)c3nnc(SCC(=O)Nc4cc(C)on4)n3c2cc1OC` to `COc1ccc(C(C)=O)cc1CSc1nnc(C)s1`, the “hERG current change (%, negative = inhibition) at 10uM” value falls from 18.4% to 11%.

Going from `CCOC(=O)Nc1c(C(=O)OC)[nH]c2cccc(OC)c12` to `CCOC(=O)c1c(C)[nH]c(C)c1S(=O)(=O)NCCc1ccc(SC)cc1`, the “hERG current change (%, negative = inhibition) at 10uM” value falls from 15.6% to -7.24%.

Compared with `COc1ccc(CN(C(=O)c2snc(C(N)=O)c2N)C(C(=O)NC2CCCC2)c2ccco2)cc1` (stereo not shown), `COc1ccc(C(=O)Nc2ccc3nc4n(c(=O)c3c2)CCCC4)cc1[N+](=O)[O-]` is higher in “hERG current change (%, negative = inhibition) at 10uM” value: -24.3% for the first, 15.9% for the second.

Compared with `Cc1n(N)c2ccccc2[n+]1CC(=O)c1ccccc1.[Br-]`, `Cc1ccc(C(O)(c2ccccc2)c2ccccc2C(C)N(C)C)c(C)c1` (stereo not shown) is lower in “hERG current change (%, negative = inhibition) at 10uM” value: 13.8% for the first, 1.55% for the second.

First: c1ccc(Nc2nc(NCCN3CCOCC3)nc(Nc3ccccc3)n2)cc1
Second: CCOc1ccc2[nH]c(=O)c(CN(CCc3ccccc3)C(=O)N3CCOCC3)cc2c1
The “hERG current change (%, negative = inhibition) at 10uM” value of the first is lower: -15.2% for the first, -14.2% for the second.

Going from `COc1ccccc1/C=N/NC(=O)CN(C1=NS(=O)(=O)c2ccccc21)c1ccccc1` to `CCOC(=O)c1ccc(NC(=O)CC2C(=O)N(c3ccccc3)C(=O)N2CCCOC)cc1` (stereo not shown), the “hERG current change (%, negative = inhibition) at 10uM” value falls from 6.77% to -4.49%.

Going from `O=C(COC(=O)CNS(=O)(=O)c1ccccc1)NC12CC3CC(CC(C3)C1)C2` to `O=C(CCCc1ccccc1)NCCS(=O)(=O)N1CCN(c2ccc(F)cc2)CC1`, the “hERG current change (%, negative = inhibition) at 10uM” value falls from -18% to -39.3%.

First: Cc1nsc(Nc2ccccc2)c1C#N
Second: O=C1CC(c2ccc3ccccc3c2)NN1 (stereo not shown)
The “hERG current change (%, negative = inhibition) at 10uM” value of the first is higher: 9.13% for the first, -0.17% for the second.

Compared with `O=C(O)C[C@@H](O)C(=O)O`, `CCOc1ccccc1NC(=O)C1C2C=CC(O2)C1C(=O)O` (stereo not shown) is lower in “hERG current change (%, negative = inhibition) at 10uM” value: 14.7% for the first, 8.34% for the second.

First: COc1ccc2c(c1)O/C(=C\c1ccco1)C2=O
Second: COc1ccc(-c2noc3c2-c2nc(-c4ccccc4Cl)sc2CC3)cc1
The “hERG current change (%, negative = inhibition) at 10uM” value of the first is lower: -8.05% for the first, 15.4% for the second.

First: CC(=O)CSc1nc2ccc(Nc3nc(N4CCOCC4)nc(N4CCOCC4)n3)cc2s1
Second: O=C(CCCc1nc2ccccc2s1)N1CCN(c2ccccc2F)CC1
The “hERG current change (%, negative = inhibition) at 10uM” value of the first is higher: -7.76% for the first, -31.3% for the second.

First: O=C1C2CC=C(Cl)CC2C(=O)N1CCc1c[nH]c2ccccc12 (stereo not shown)
Second: O=C1CC(N2CCC(c3nc4ccccc4[nH]3)CC2)C(=O)N1c1cccc(F)c1 (stereo not shown)
The “hERG current change (%, negative = inhibition) at 10uM” value of the first is higher: -4.29% for the first, -17.9% for the second.

Compared with `C/C(=N\Nc1ncc(Cl)cc1Cl)c1cccs1`, `O=C(Nc1ccc(Cl)c(Cl)c1)NC1CCS(=O)(=O)C1` (stereo not shown) is higher in “hERG current change (%, negative = inhibition) at 10uM” value: -17.7% for the first, -8.07% for the second.

First: CCOC(=O)N1CCN(c2c(N3CCN(c4ccc(OC)cc4)CC3)c(=O)c2=O)CC1
Second: Cc1cccc(N2CCN(C(=O)Cn3cnc4c3c(=O)n(C)c(=O)n4C)CC2)c1C
The “hERG current change (%, negative = inhibition) at 10uM” value of the first is lower: -46.6% for the first, -26% for the second.

Compared with `CCOc1cccc(Oc2ncccc2C(=O)/C(C#N)=C/N(C)C)c1`, `CCCOc1cccc(C2C(C(=O)c3ccco3)=C(O)C(=O)N2CCCn2ccnc2)c1` (stereo not shown) is lower in “hERG current change (%, negative = inhibition) at 10uM” value: 19.8% for the first, 16.8% for the second.

Going from `CCn1c(SCC(=O)Nc2ccc(C)cc2)nc2sc3c(c2c1=O)CCN(C)C3` to `CCn1c(SCC(=O)N2CCCCC2)nc2c1c(=O)n(C)c(=O)n2C`, the “hERG current change (%, negative = inhibition) at 10uM” value rises from 3.79% to 14.3%.

First: CC(C)OCCCNC(=O)c1ccc(CS(=O)(=O)Cc2ccccc2F)o1
Second: O=C(NCc1ccc(Cl)s1)C1CCC(=O)N(CCc2cccc(F)c2)C1 (stereo not shown)
The “hERG current change (%, negative = inhibition) at 10uM” value of the first is higher: 8.07% for the first, -60.2% for the second.

First: CCSc1nc(=S)cc(C)[nH]1
Second: Cc1cc(=O)oc2c(CN3CC(C)OC(C)C3)c(O)c(Cl)cc12 (stereo not shown)
The “hERG current change (%, negative = inhibition) at 10uM” value of the first is higher: 17.9% for the first, 14.5% for the second.

First: NC(=O)[C@@H]1CCCCNc2c(F)cc([N+](=O)[O-])cc2C(=O)N[C@@H](CC(=O)O)C(=O)NCC(=O)N1
Second: O=[N+]([O-])c1ccc(Cn2cc(-c3cccc(C(F)(F)F)c3)nn2)cc1
The “hERG current change (%, negative = inhibition) at 10uM” value of the first is higher: 4.96% for the first, -24.9% for the second.
